Usually Ki stands for a measure of affinity in units of concentration, obtained from inhibition or displacement.

The test deals with HCV NS3/NS4A protease (strain 1a) (Hepatitis C virus genotype 1a, UniProt P27958). As to the kind of experiment: Spectrophotometric assay for HCV protease inhibitory activity. Type of test: biochemical. The following applies: recombinant heterodimeric NS3/NS4A protease, chromogenic ester substrates, 30° C., pH 6.5. The source says: Assay for HCV Protease Inhibitory Activity:
Spectrophotometric Assay: Spectrophotometric assay for the HCV serine protease can be performed on the inventive compounds by following the procedure described by R. Zhang et al, Analytical Biochemistry, 270 (1999) 268-275, the disclosure of which is incorporated herein by reference. The assay based on the proteolysis of chromogenic ester substrates is suitable for the continuous monitoring of HCV NS3 protease activity. The substrates are derived from the P side of the NS5A-NS5B junction sequence (Ac-DTEDVVX(Nva), where X=A or P) whose C-terminal carboxyl groups are esterified with one of four different chromophoric alcohols (3- or 4-nitrophenol, 7-hydroxy-4-methyl-coumarin, or 4-phenylazophenol). Illustrated below are the synthesis, characterization and application of these novel spectrophotometric ester substrates to high throughput screening and detailed kinetic evaluation of HCV NS3 protease inhibitors. Materials and Methods:
Materials: Chemical reagents for assay related buffers are obtained from Sigma Chemical Company (St. Louis, Mo.). Reagents for peptide synthesis were from Aldrich Chemicals, Novabiochem (San Diego, Calif.), Applied Biosystems (Foster City, Calif.) and Perseptive Biosystems (Framingham, Mass.). Peptides are synthesized manually or on an automated ABI model 431A synthesizer (from Applied Biosystems). UV/VIS Spectrometer model LAMBDA 12 was from Perkin Elmer (Norwalk, Conn.) and 96-well UV plates were obtained from Corning (Corning, N.Y.). The prewarming block can be from USA Scientific (Ocala, Fla.) and the 96-well plate vortexer is from Labline Instruments (Melrose Park, Ill.). A Spectramax Plus microtiter plate reader with monochrometer is obtained from Molecular Devices (Sunnyvale, Calif.).
Protein concentrations are determined by the Biorad dye method using recombinant HCV protease standards previously quantified by amino acid analysis. Prior to assay initiation, the enzyme storage buffer (50 mM sodium phosphate pH 8.0, 300 mM NaCl, 10% glycerol, 0.05% lauryl maltoside and 10 mM DTT) is exchanged for the assay buffer (25 mM MOPS pH 6.5, 300 mM NaCl, 10% glycerol, 0.05% lauryl maltoside, 5 μM EDTA and 5 μM DTT) utilizing a Biorad Bio-Spin P-6 prepacked column. Substrate Synthesis and Purification: The synthesis of the substrates is done as reported by R. Zhang et al, (ibid.) and is initiated by anchoring Fmoc-Nva-OH to 2-chlorotrityl chloride resin using a standard protocol (K. Barlos et al, Int. J. Pept. Protein Res., 37 (1991), 513-520). The peptides are subsequently assembled, using Fmoc chemistry, either manually or on an automatic ABI model 431 peptide synthesizer. […] The combined filtrate and DCM wash is evaporated azeotropically (or repeatedly extracted by aqueous Na2CO3 solution) to remove the acid used in cleavage. The DCM phase is dried over Na2SO4 and evaporated.
The ester substrates are assembled using standard acid-alcohol coupling procedures (K. Holmber et al, Acta Chem. Scand., B33 (1979) 410-412). Peptide fragments are dissolved in anhydrous pyridine (30-60 mg/ml) to which 10 molar equivalents of chromophore and a catalytic amount (0.1 eq.) of para-toluenesulfonic acid (pTSA) were added. Dicyclohexylcarbodiimide (DCC, 3 eq.) is added to initiate the coupling reactions. Product formation is monitored by HPLC and can be found to be complete following 12-72 hour reaction at room temperature. Pyridine solvent is evaporated under vacuum and further removed by azeotropic evaporation with toluene. The peptide ester is deprotected with 95% TFA in DCM for two hours and extracted three times with anhydrous ethyl ether to remove excess chromophore.

As for `C#CCCC(NC(=O)[C@@H]1C[C@@H](OC(=O)N2CCc3ccccc3C2)CN1C(=O)[C@@H](NC(=O)N[C@H](CN(C)S(C)(=O)=O)C(C)(C)C)C(C)(C)C)C(=O)C(=O)NCC=C` (stereo partly shown) [Example 109], the Ki was 7 nM. As for `C#CCCC(NC(=O)[C@@H]1C[C@@H](OC(=O)N2CCc3ccccc3C2)CN1C(=O)[C@@H](NC(=O)NC1(CS(=O)(=O)C(C)(C)C)CCCCC1)C(C)(C)C)C(=O)C(=O)NCC=C` (stereo partly shown) [Example 117], the inhibition constant Ki is 8 nM.

Take `C=CCNC(=O)C(=O)C(CC1CC1)NC(=O)[C@@H]1C[C@@H](OC(=O)N2CCc3ccccc3C2)CN1C(=O)[C@@H](NC(=O)NC1(CS(=O)(=O)C(C)(C)C)CCCCC1)C(C)(C)C` (stereo partly shown) [Example 116]: the Ki was 11 nM. Consider `CCCC(NC(=O)[C@@H]1C[C@@H](OC(=O)N2CCc3ccccc3C2)CN1C(=O)[C@@H](NC(=O)N[C@H](CN(C)S(C)(=O)=O)C(C)(C)C)C(C)(C)C)C(=O)C(=O)NC1CC1` (stereo partly shown) [Example 103], for which the Ki worked out at 13 nM. Regarding `CN(C[C@@H](NC(=O)N[C@H](C(=O)N1C[C@H](OC(=O)N2CCc3ccccc3C2)C[C@H]1C(=O)NC(CC1CC1)C(=O)C(N)=O)C(C)(C)C)C(C)(C)C)S(C)(=O)=O` (stereo partly shown) [Example 106], the Ki was 6 nM. For `C=CCNC(=O)C(=O)C(CCC(F)(F)F)NC(=O)[C@@H]1C[C@@H](OC(=O)N2CCc3ccccc3C2)CN1C(=O)[C@@H](NC(=O)NC1(CS(=O)(=O)C(C)(C)C)CCCCC1)C(C)(C)C` (stereo partly shown) [Example 119] the value was 12 nM. Then `CC(C)(C)[C@H](NC(=O)NC1(CS(=O)(=O)C(C)(C)C)CCCCC1)C(=O)N1C[C@H](OC(=O)N2CCc3ccccc3C2)C[C@H]1C(=O)NC(CC1CCC1)C(=O)C(N)=O` (stereo partly shown) [Example 112], with 5.8 nM; and `CC(C)(C)[C@H](NC(=O)NC1(CS(=O)(=O)C(C)(C)C)CCCCC1)C(=O)N1C[C@H](OC(=O)N2CCc3ccccc3C2)C[C@H]1C(=O)NC(CC1CC1)C(=O)C(N)=O` (stereo partly shown) [Example 113], with 5.2 nM; and `CCCC(NC(=O)[C@@H]1C[C@@H](OC(=O)N2CCc3ccccc3C2)CN1C(=O)[C@@H](NC(=O)NC1(CS(=O)(=O)C(C)(C)C)CCCCC1)C(C)(C)C)C(=O)C(=O)NC1CC1` (stereo partly shown) [Example 102], with 15 nM. `CN(C[C@@H](NC(=O)N[C@H](C(=O)N1C[C@H](OC(=O)N2CCc3ccccc3C2)C[C@H]1C(=O)NC(CC1CCC1)C(=O)C(N)=O)C(C)(C)C)C(C)(C)C)S(C)(=O)=O` (stereo partly shown) [Example 107]: the Ki stood at 5 nM. Take `C=CCNC(=O)C(=O)C(CCC)NC(=O)[C@@H]1C[C@@H](OC(=O)N2CCc3ccccc3C2)CN1C(=O)[C@@H](NC(=O)NC1(CS(=O)(=O)C(C)(C)C)CCCCC1)C(C)(C)C` (stereo partly shown) [Example 114]: the inhibition constant Ki was determined as 18 nM.

Take `CCCC(NC(=O)[C@@H]1C[C@@H](OC(=O)N2CCc3ccccc3C2)CN1C(=O)[C@@H](NC(=O)N[C@H](CN(C)S(=O)(=O)c1cccs1)C(C)(C)C)C(C)(C)C)C(=O)C(=O)NC1CC1` (stereo partly shown) [Example 101]: the inhibition constant Ki amounted to 36 nM. Take `C=CCNC(=O)C(=O)C(CC1CCC1)NC(=O)[C@@H]1C[C@@H](OC(=O)N2CCc3ccccc3C2)CN1C(=O)[C@@H](NC(=O)N[C@H](CN(C)S(C)(=O)=O)C(C)(C)C)C(C)(C)C` (stereo partly shown) [Example 110]: the Ki turned out to be 6 nM. For `C=CCNC(=O)C(=O)C(CC1CC1)NC(=O)[C@@H]1C[C@@H](OC(=O)N2CCc3ccccc3C2)CN1C(=O)[C@@H](NC(=O)N[C@H](CN(C)S(C)(=O)=O)C(C)(C)C)C(C)(C)C` (stereo partly shown) [Example 108] the value was 7 nM. For `C=CCNC(=O)C(=O)C(CCCC)NC(=O)[C@@H]1C[C@@H](OC(=O)N2CCc3ccccc3C2)CN1C(=O)[C@@H](NC(=O)NC1(CS(=O)(=O)C(C)(C)C)CCCCC1)C(C)(C)C` (stereo partly shown) [Example 115] the value was 25 nM; for `C=CCNC(=O)C(=O)C(CCC)NC(=O)[C@@H]1C[C@@H](OC(=O)N2CCc3ccccc3C2)CN1C(=O)[C@@H](NC(=O)N[C@H](CN(C)S(C)(=O)=O)C(C)(C)C)C(C)(C)C` (stereo partly shown) [Example 105], 9 nM; for `C=CCNC(=O)C(=O)C(CCC(F)(F)F)NC(=O)[C@@H]1C[C@@H](OC(=O)N2CCc3ccccc3C2)CN1C(=O)[C@@H](NC(=O)N[C@H](CN(C)S(C)(=O)=O)C(C)(C)C)C(C)(C)C` (stereo partly shown) [Example 111], 6 nM.

Turning to `C=CCNC(=O)C(=O)C(CC1CCC1)NC(=O)[C@@H]1C[C@@H](OC(=O)N2CCc3ccccc3C2)CN1C(=O)[C@@H](NC(=O)NC1(CS(=O)(=O)C(C)(C)C)CCCCC1)C(C)(C)C` (stereo partly shown) [Example 118], the Ki was found to be 16 nM. Turning to `C=CCNC(=O)C(=O)C(CCCC)NC(=O)[C@@H]1C[C@@H](OC(=O)N2CCc3ccccc3C2)CN1C(=O)[C@@H](NC(=O)N[C@H](CN(C)S(C)(=O)=O)C(C)(C)C)C(C)(C)C` (stereo partly shown) [Example 104], the inhibitory constant (Ki) worked out at 16 nM.

The values are drawn from patent publication US7399749B2, “Substituted prolines as inhibitors of hepatitis C virus NS3 serine protease” (Schering Corporation, priority 2004, dated 2008).
